The campaign covered roughly 390,000 compounds. About 4,700 (1.2%) were called active. Roughly 4% stayed inconclusive and do not appear here. Calls come from the whole dose curve; as a rule, active = well fitted inhibition curve with a large enough effect; inconclusive = small, poorly fitted or top-dose-only effect, or another doubt; inactive = no such curve, though single readings can be large or run the other way. The entries are a selection whose mix differs from that of the whole data set. More than one record can exist for a structure, and the calls need not agree.
% is set by controls: 0 for no effect and ±100 for the full control effect; potency is the fitted concentration of half-maximal effect.

The assay deals with DNA polymerase eta (Homo sapiens) (UniProt Q9Y253). Kind of assay: qHTS for Inhibitors of Polymerase Eta. The note with it: recombinant Pol eta, fluorescent DNA replication assay; series mostly up to 114 µM; activity change, negative = inhibition: at the top concentration. Summed up: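 Pol eta at 10 nM preincubated with compounds 15 min at room temperature; reaction started with fluorescent substrate (50 nM final) and read kinetically at 0 and 10 min.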
UniProt Q9Y253, sequence (Q9Y253 whole entry, looked up): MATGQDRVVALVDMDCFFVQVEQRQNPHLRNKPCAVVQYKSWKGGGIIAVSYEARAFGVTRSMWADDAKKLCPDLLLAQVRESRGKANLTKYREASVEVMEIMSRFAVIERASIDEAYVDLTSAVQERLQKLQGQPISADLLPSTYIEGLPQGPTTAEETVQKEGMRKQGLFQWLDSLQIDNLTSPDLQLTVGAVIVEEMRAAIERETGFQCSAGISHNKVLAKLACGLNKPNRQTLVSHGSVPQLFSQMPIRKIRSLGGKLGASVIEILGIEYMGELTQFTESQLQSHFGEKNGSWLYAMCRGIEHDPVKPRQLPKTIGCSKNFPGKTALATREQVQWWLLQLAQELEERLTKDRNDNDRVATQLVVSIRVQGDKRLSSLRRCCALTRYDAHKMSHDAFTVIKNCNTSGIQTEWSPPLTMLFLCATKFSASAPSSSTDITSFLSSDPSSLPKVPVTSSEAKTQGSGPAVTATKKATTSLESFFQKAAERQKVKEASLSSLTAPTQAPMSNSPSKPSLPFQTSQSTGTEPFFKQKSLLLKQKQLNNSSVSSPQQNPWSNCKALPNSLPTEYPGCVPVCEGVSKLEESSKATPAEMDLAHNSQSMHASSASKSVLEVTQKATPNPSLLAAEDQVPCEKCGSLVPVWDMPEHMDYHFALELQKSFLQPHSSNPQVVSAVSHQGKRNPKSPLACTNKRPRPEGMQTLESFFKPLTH
On the technique in general: qHTS replaces the single test concentration by a dilution series.
Take `O=C(O)[C@H]1CCCC[C@H]1C(=O)Nc1ccc(S(=O)(=O)N2CCOCC2)cc1`: the “activity change, negative = inhibition” value was inactive: -17.8%. `Cc1ccc(NC(=O)Cn2c(=O)n(Cc3ccco3)c(=O)c3ccccc32)c(C)c1`: the Potency result is “inactive”. Regarding `CCCCN(C(=O)c1cc(-c2ccco2)nc2ccccc12)c1c(N)n(CCCC)c(=O)[nH]c1=O`, the Potency was active: 50.1 µM. `C[N+](C)(CCCCCC[N+](C)(C)CCCN1C(=O)c2cccc3cccc(c23)C1=O)CCCN1C(=O)c2cccc3cccc(c23)C1=O`: the “activity change, negative = inhibition” value is inactive: -6.44%. Regarding `O=c1c(OC2OC(CO)C(O)C(O)C2OC2OC(CO)C(O)C(O)C2O)c(-c2ccc(O)cc2)oc2cc(O)cc(O)c12` (stereo not drawn), the Potency is active: 11.2 µM. Consider `C=CC[C@H](CC(=O)N(CCO)Cc1ccccc1)C(=O)N[C@H](C)COC(=O)[C@@H](CC=C)Cc1ccc(F)cc1`, for which the “activity change, negative = inhibition” value is inactive: -28.9%. Still for that read-out and setting: the figure for `CCCCCC(=O)N1C[C@@H](n2cc(COC(=O)c3ccccc3)nn2)[C@H](O)C[C@@H]1c1ccc(OC)cc1` is inactive: -10.5%; for `O=C(CCCN1C(=O)/C(=C/c2cccs2)SC1=S)Nc1cc([N+](=O)[O-])ccc1O` it is inactive: -16.6%. For the molecule `CCOc1ccc(S(=O)(=O)NCC2CCCO2)c2cccnc12` (stereo not drawn), the “activity change, negative = inhibition” value is inactive: 15%. For the molecule `O=C(/C=C\c1ccco1)NC(=S)Nc1ccccc1O`, the Potency was active: 22.4 µM. On to `O=C(/C=C/c1ccccc1Cl)Nc1ccc(S(=O)(=O)Nc2ncccn2)cc1`, for which the “activity change, negative = inhibition” value was inactive: 19%. For `CCC(CC)NC(=O)Nc1ccccc1C(F)(F)F`, the “activity change, negative = inhibition” value is inactive: 37.1%. For `CCCCCCN1C[C@@H](n2cc(COC(=O)c3ccccc3)nn2)[C@H](O)C[C@@H]1c1ccc(Cl)cc1`, the “activity change, negative = inhibition” value was inactive: -16.1%. For the molecule `CC(C)NCC(O)c1ccc(O)c(O)c1` (stereo not drawn), the Potency entry is “inactive”. For `Cc1cc(C)cc(Oc2nc3c(C)cccn3c(=O)c2/C=C(\C#N)c2nc3ccccc3[nH]2)c1`, the “activity change, negative = inhibition” value was inactive: 241%.

Take `Cc1ccn2c(Nc3ccccc3C)c(-c3ccccn3)nc2c1`: the “activity change, negative = inhibition” value was inactive: -25.8%. Regarding `CN(C)c1ccc(O)c2c1CC1CC3C(N(C)C)C(=O)C(C(N)=O)=C(O)[C@@]3(O)C(=O)C1=C2O` (stereo partly drawn), the “activity change, negative = inhibition” value was inactive: -2.14%.

As to `CCOC(=O)c1c(NC(=O)COC(=O)c2ccc(NC(=O)CC#N)cc2)sc(C(=O)NC)c1C`, the Potency was active: 10 µM. Consider `O=C(NC1CC1)C1=C[C@H](c2ccc(Br)cc2)C[C@H](OCc2ccc(CO)cc2)O1`, for which the “activity change, negative = inhibition” value is inactive: -16.1%.

For `N#C/C(=C/c1ccc(OC(=O)c2ccc(Br)s2)cc1)c1nc2ccccc2[nH]1`, the “activity change, negative = inhibition” value is inactive: -8.24%.

Take `COc1ccc(C)cc1NC(=O)c1cc(S(=O)(=O)N2CCOCC2)cn1C`: the “activity change, negative = inhibition” value was inactive: -4.44%. `O=C(O)c1ccc(-n2ncc3c2/C(=C/c2cccc([N+](=O)[O-])c2)CC3)cc1`: the Potency is active: 50.1 µM. As to `CC(=O)C1=C(O)C(=O)N(c2ccc(S(N)(=O)=O)cc2)C1c1cccc([N+](=O)[O-])c1` (stereo not drawn), the “activity change, negative = inhibition” value is inactive: 33.6%. `Cn1c(SCC(=O)N/N=C/C=C\c2ccccc2[N+](=O)[O-])nc2ccccc21`: the “activity change, negative = inhibition” value was inactive: 6.62%.

As for `O=C(O)CCCN1C(=O)/C(=C\c2ccco2)SC1=S`, the Potency was active: 20 µM. `COc1ccc2oc(C(=O)Nc3ccc(N4CCOCC4)cc3)c(C)c2c1`: the Potency was active: 12.6 µM. For the molecule `C=CCC[C@H](Cc1ccc(F)cc1)C(=O)OC[C@H](Cc1c[nH]c2ccccc12)NC(=O)[C@@H](CC=C)CC(=O)N(CCO)Cc1ccccc1`, the “activity change, negative = inhibition” value is inactive: -20.2%. With `CC1(CO)COC(c2ccccc2)=N1` (stereo not drawn), the “activity change, negative = inhibition” value is inactive: 34.9%.

`Brc1ccc2[nH]c3nc(SCCN4CCOCC4)nnc3c2c1`: the “activity change, negative = inhibition” value was inactive: -9.91%. On the same count and under the same terms, the figure for `O=S(=O)(Nc1cccc(-c2ccc(N3CCCCCC3)nn2)c1)c1ccc(F)cc1` is inactive: -18.7%. Regarding `Cc1nnc(SCC(=O)Nc2sccc2C#N)s1`, the Potency was active: 25.1 µM. As to `Cc1nc2ccccc2c(=O)n1NC(=O)c1cc(Br)ccc1Cl`, the “activity change, negative = inhibition” value is inactive: 36.4%. Consider `C=CCC[C@H](Cc1ccc(F)cc1)C(=O)OC[C@@H](C)NC(=O)[C@H](CC=C)CC(=O)N(CCO)Cc1ccccc1`, for which the “activity change, negative = inhibition” value is inactive: -23.6%.

Regarding `C[C@H](NC(=O)c1ncn(C)c1C(=O)N[C@@H](C)c1ccccc1)c1ccccc1`, the “activity change, negative = inhibition” value is inactive: -14.9%. Still for that read-out and setting: the figure for `O=C(Nc1ccc(NC(=O)C2CC2)nc1)c1cccnc1` is inactive: -9.71%. Take `CCC(C)N1C(=O)/C(=C/c2c(NCCCOC(C)C)nc3c(C)cccn3c2=O)SC1=S` (stereo not drawn): the Potency is active: 22.4 µM. As for `CCCCCCCCCCCCCCC[C@@H](O)[C@@H](N)CO`, the “activity change, negative = inhibition” value is inactive: -0.148%. `O=C(Nc1ccc(S(=O)(=O)O)cc1)c1ccc2c(c1)S(=O)(=O)c1ccccc1C2=O`: the Potency is active: 28.2 µM. Consider `N/C(=N\OC(=O)Nc1cccc(C(F)(F)F)c1)c1ccno1`, for which the “activity change, negative = inhibition” value is inactive: 23.4%.

Turning to `CCOc1ccc(CCNC(=O)CCCn2c(=O)c3cccn3c3cccnc32)cc1`, the “activity change, negative = inhibition” value was inactive: 15.6%. On the same count and under the same terms, the figure for `CN(C)c1ccc(P(=O)(OC2CCCCC2)C(O)c2ccccn2)cc1` (stereo not drawn) is inactive: 31.1%; for `Cc1ccc(-c2csc(C(C#N)=C(O)CN3CCN(C(=O)c4ccco4)CC3)n2)cc1` it is inactive: 9.87%. On to `NC(=O)C1CCN(C2=C(Cl)C(=O)c3ccccc3C2=O)CC1`, for which the Potency is active: 6.31 µM. For `Cc1ccc2c(n1)sc1c(-c3ccccc3)c(C#N)c(N)nc12`, the “activity change, negative = inhibition” value is inactive: 4.54%.

Regarding `O=C(NCc1ccco1)C1CCCN(S(=O)(=O)c2ccc(-n3cnnn3)cc2)C1` (stereo not drawn), the Potency is active: 20 µM.

Consider `O=C(NNc1cc(N2CCOCC2)nc(N2CCOCC2)n1)c1ccc([N+](=O)[O-])cc1`, for which the Potency was active: 89.1 µM.

On to `CCN(CC)c1ccc(/C=C2/C(=O)c3ccc(C(=O)O)cc3C2=O)cc1`, for which the Potency is active: 3.55 µM. For the molecule `O=C1c2c(O)cc(O)cc2O[C@H](c2ccc(O)c(O)c2)[C@H]1O`, the “activity change, negative = inhibition” value was inactive: 4.11%. For the molecule `CCOC(=O)/C(C#N)=C\c1c(OCC)n(CC)c2ccccc12`, the “activity change, negative = inhibition” value is inactive: -22.9%. `Cc1ccc(/C=C/C(=O)Nc2ccc([N+](=O)[O-])c(NC(=O)/C=C/c3ccc(C)o3)c2)o1`: the Potency is active: 8.91 µM. Consider `Oc1ccc(NCc2ccccc2OCc2ccccc2F)cc1`, for which the “activity change, negative = inhibition” value was inactive: -23.5%. As to `CCOc1ccc(CNC(=O)c2cc3c(=O)n(Cc4cccs4)ccc3nc2C)cc1`, the “activity change, negative = inhibition” value is inactive: 15.9%. Turning to `COc1ccc(CCC(C)Nc2ccccc2F)cc1` (stereo not drawn), the “activity change, negative = inhibition” value was inactive: -0.755%. For `NNC(=O)[C@@H]1C[C@@H]1c1ccccc1`, the “activity change, negative = inhibition” value is inactive: -19.1%. For `O=c1c(C(c2ccc(Cl)cc2)c2c(O)nc3n(c2=O)CCS3)c(O)nc2n1CCS2`, the Potency is active: 89.1 µM. With `Cn1cc(C2=C(c3ccc(Cl)cc3Cl)C(=O)NC2=O)c2ccccc21`, the “activity change, negative = inhibition” value was inactive: -6.25% [at 57.1 µM]. Still for that read-out and setting: the figure for `O=C(CSc1ccc2ccccc2n1)Nc1nsc(-c2ccc(Cl)cc2)n1` is inactive: -15.5%. For the molecule `CCOc1cc(/C=C(/C#N)c2nc3ccccc3[nH]2)ccc1OCc1ccc(C(=O)O)o1`, the Potency was active: 7.94 µM.

The values above are taken from PubChem BioAssay AID588591 (National Center for Advancing Translational Sciences (NCATS), 2011).
